Where two headings read alike, the source gives them in different places.
Tests used:
[1] = target: T1, main 3CL protease of SARS-CoV-2 (Severe acute respiratory syndrome coronavirus 2, UniProt P0DTD1); experiment: Inhibition of enzymatic activity of the main 3CL protease in vitro; assay type: biochemical
[2] = target: T1, main 3CL protease of SARS-CoV-2; experiment: Reversibility of inhibition of the main 3CL protease (dilution and filtration through 3 kDa membrane); assay type: biochemical; conditions: 24 hours incubation at high concentration, three cycles of dilution and filtration, concentration down to 0.2 μM

Structure (SMILES) | IC50 ([1]; incubated 20 hours with the protease at room temperature before addition of substrate, read-out: IC50, main 3CL protease activity) [µM] | IC50 ([1]; incubated one hour with the protease, read-out: IC50, main 3CL protease activity) [µM] | inhibition of protease activity persisting after elution [2] [%] | IC50 ([1]; IC50, main 3CL protease activity, incubated 20 hours with the protease at room temperature before addition of substrate) [µM] | IC50 ([1]; IC50, main 3CL protease activity, incubated one hour with the protease) [µM]
CCC(CC)CC1(C(=O)Nc2ccccc2S)CCCCC1 [Dalcetrapib thiol] | 14.4 ± 3.6 | 100 ± 3.6 |  |  | 
CCC(CC)CC1(C(=O)Nc2ccccc2SC(=O)C(C)C)CCCCC1 [Dalcetrapib] |  |  | 97.6 | 14.4 | 100

Source: patent US20210338626A1, “METHODS FOR TREATING OR PREVENTING A VIRAL INFECTION OR INHIBITING VIRAL REPLICATION” (Dalcor Pharma UK Ltd., Leatherhead, Zug Branch, priority 2020, published 2021)
